According to PubChem BioAssay AID686978 (National Center for Advancing Translational Sciences (NCATS), 2013):
Among all 420,000 compounds or so, about 64,000 (15%) were called active. Inconclusive results, whose numbers are uncertain, are shown with a selection of clear calls. The call rests on the fitted dose curve; in most records, active means well fitted inhibition curve with a large enough effect; inconclusive means small, poorly fitted or top-dose-only effect; inactive means flat fitted curve, though single readings scatter. No potency is given beside an inconclusive call; the fits are too rough.

Test: qHTS for Inhibitors of human tyrosyl-DNA phosphodiesterase 1 (TDP1): qHTS in cells in absence of CPT; further: nearly all actives have a fitted effect of over 55% in size
Conditions: DT40 Tdp1-/- hTDP1 cells, no CPT, ATP luminescence, 48 h; series mostly up to 46.2 µM
Procedure, shortened: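 Growth kinetics read by CellTiter-Glo luminescence after ≥48 hr at 37 °C. Cells: DT40 Tdp1-/- stably carrying human TDP1, 400 per well, compound exposure in the absence of CPT (DMSO vehicle).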
Potency means the concentration at half of the fitted maximal effect; tags describe the fitted curve by direction and shape.

Row | Structure (SMILES) | Potency
1 | Clc1nc(Nc2ccc(N3CCOCC3)cc2)c2ccccc2n1 | inconclusive [inhibitor, partial curve]
2 | O=S(=O)(c1ccc2nc(COc3ccc(Cl)cc3Cl)[nH]c2c1)N1CCOCC1 | inconclusive [inhibitor, single point]
3 | N#CCCN(Cc1cccnc1)S(=O)(=O)c1ccc(S(=O)(=O)N2CCCCCC2)cc1 | inconclusive [inhibitor, single point]
4 | O=C1C(C2=C(O)c3ccccc3C2=O)=Nc2ccccc21 | active: 14.6 µM
5 | O=C(OCc1ccc(F)cc1)c1ccc2ccccc2n1 | inconclusive [inhibitor, full curve, poor fit]
6 | CCCCCN1C(C(=O)c2ccccc2)=C(NC(=O)c2ccccc2Cl)c2ccccc2S1(=O)=O | active: 8.2 µM
7 | CCOc1cc(C#N)c(NC(=O)CSc2nnnn2-c2ccc(OC)cc2)cc1OCC | inconclusive [inhibitor, single point]
8 | Cc1cccc(C(=O)NCCCN2CCCC2=O)c1 | inactive
9 | CC1CC(C)CN(S(=O)(=O)c2ccc(C(=O)NCCCn3ccnc3)cc2)C1 (centres undefined) | inconclusive [inhibitor, single point]
10 | CC(=O)c1ccc(N2CCN(S(=O)(=O)c3ccc(-c4cc(C)no4)s3)CC2)cc1 | inconclusive [inhibitor, single point]
11 | CC1=C(C(=O)OCCCCCl)C(c2cc3c(cc2Br)OCO3)NC(=O)N1 (centres undefined) | inconclusive [inhibitor, single point]
12 | CCOc1ccc(CCNC(=O)CCNC(=O)c2ccco2)cc1OCC | inactive
13 | Cc1nn2c3ccccc3nc2c2ccccc12 | inconclusive [inhibitor, partial curve]
14 | O=C(Nc1cccc(S(=O)(=O)N2CCCCC2)c1)c1ccc(Cl)nc1 | active: 14.6 µM
15 | C=CCc1c(C)nc(SC)nc1Nc1ccc(C)cc1 | active: 20.6 µM
16 | CCOc1ccc(NC(=O)CC(C)S(=O)(=O)c2ccc3c(c2)NC(=O)CO3)cc1 (centres undefined) | inactive
17 | COc1ccc(C2CC23N=C(c2ccccc2)OC3=O)cc1 (centres undefined) | inconclusive [inhibitor, single point]
18 | COc1ccc2[nH]c(=O)c(CN(CCCN3CCOCC3)C(=O)NCc3ccccc3)cc2c1 | inactive
19 | Cc1nn(C)c2nc(-c3cccs3)cc(C(F)(F)F)c12 | inconclusive [inhibitor, single point]
20 | Cc1ccc(-c2nn(-c3ccccc3)c3[nH]c(=O)c(CNCc4ccccc4)cc23)cc1 | inconclusive [inhibitor, single point]
21 | CC(C)[C@H](NS(=O)(=O)c1ccccc1)C(=O)OCn1nnc2ccccc2c1=O | inactive
22 | CC1CCN(C(=O)COC(=O)CCC(=O)c2cccs2)CC1 | inactive

Row | Structure (SMILES) | Potency
23 | CC1CCCC(NC(=O)c2cccs2)C1C (centres undefined) | inconclusive [inhibitor, single point]
24 | O=C(Nc1nccs1)C1CCN(S(=O)(=O)c2ccc(Cl)c(C(F)(F)F)c2)CC1 | inconclusive [inhibitor, partial curve]
25 | CC(C)N1CCc2c(sc(NC(=O)c3nc4ccccc4s3)c2C(N)=O)C1 | active: 20.6 µM
26 | O=C1CC/C=C\C[C@@H](CC(=O)N(CCO)Cc2ccccc2)C(=O)N[C@H](Cc2ccccc2)CO1 | inconclusive [inhibitor, single point]
27 | COc1ccc(/C=C2\SC(=S)N(CCC(=O)N(CCO)c3ccccc3)C2=O)cc1OC | inconclusive [inhibitor, single point]
28 | Cc1oc(-c2ccc(Cl)cc2)cc1C(=O)N1CCC1(C)C(=O)O (centres undefined) | inconclusive [inhibitor, single point]
29 | N#CC1=C(N)N(c2ccc(F)cc2)C2=C(C1c1ccc(O)cc1)S(=O)(=O)CC2 (centres undefined) | inconclusive [inhibitor, single point]
30 | CCOC(=O)C1=C(N)Oc2cc(C)n(C)c(=O)c2C1c1ccncc1 (centres undefined) | inconclusive [inhibitor, single point]
31 | NS(=O)(=O)c1ccc(CCNCc2ccccc2OCc2ccc(Cl)cc2)cc1 | inconclusive [inhibitor, single point]
32 | CCCCN(C)c1c(C)nc2ccc(C(=O)N3CCN(C(C)=O)CC3)cn12 | inconclusive [inhibitor, partial curve, poor fit]
33 | Cc1c(Cl)c(=O)oc2cc(OC(C)C)ccc12 | inactive
34 | CCN(CC)C(=O)Oc1ccc(Cl)c2cccnc12 | inactive
35 | CN(C)c1ncc(S(=O)(=O)c2ccc(Cl)cc2)c(-c2ccccc2)n1 | inconclusive [inhibitor, single point]
36 | CC12CCC(C(=O)N(c3cccc(Cl)c3)C1=O)C2(C)C (centres undefined) | inconclusive [inhibitor, partial curve, poor fit]
37 | N#Cc1cccc(NC(=O)C2CCN(c3ncccn3)CC2)c1 | inactive
38 | Cc1ccc(-c2nc3cc(Br)cnc3nc2-c2ccc(C)cc2)cc1 | inconclusive [inhibitor, single point]
39 | CCC1=NN2C(=N)/C(=C\c3ccc(OCc4cc(=O)n5nc(CC)sc5n4)c(OC)c3)C(=O)N=C2S1 | inactive
40 | COC(=O)[C@]12CCCCC=C1N(Cc1ccccc1)C(=O)[C@H](CC(=O)N1CCCC1)C2 | inconclusive [inhibitor, single point]
41 | Cc1coc2cc3oc(=O)c(CC(=O)N4C[C@H]5C[C@@H](C4)c4cccc(=O)n4C5)c(C)c3cc12 | inconclusive [inhibitor, single point]
42 | COc1cc(CN2CC(=O)N(c3ccccc3Cl)C2=S)cc(OC)c1OC | inconclusive [inhibitor, single point]
43 | CCc1ccc(C(=O)CSc2nnc(C)c(=O)[nH]2)cc1 | inconclusive [inhibitor, partial curve, poor fit]
44 | CCOc1cc(/C=N/NS(=O)(=O)c2ccccc2)ccc1OS(=O)(=O)c1ccc(C)cc1 | inactive
